Test results: the supplement of paper PMC11876631
± gives the standard deviation of the averaged measurements. Laboratory Escherichia coli strains with one amino-acid change in an essential protein, pooled on minimal glucose agar with carbenicillin or gentamicin at twice the control MIC (plus kanamycin and chloramphenicol for the plasmids), 48 h. Fold change of barcode share against drug-free plates; higher = less susceptible. Active = above 20 in both replicates (the paper's putatively resistant). '<' = one read or none on drug, '>' = one read or none on a drug-free plate. Shares are relative, so most strains fall below 1 when a few take over. Listed are strains with at least 15 reads on both drug-free plates, and hits; most hits rest on fewer reference reads. Replicate rank correlation about 0.5. Edits are read from barcodes.

B1: aroC L336A (protein)
chain: MAGNTIGQLFRVTTFGESHGLALGCIVDGVPPGIPLTEADLQHDLDRRRPGTSRYTTQRREPDQVKILSGVFEGVTTGTSIGLLIENTDQRSQDYSAIKDVFRPGHADYTYEQKYGLRDYRGGGRSSARETAMRVAAGAIAKKYLAEKFGIEIRGCLTQMGDIPLDIKDWSQVEQNPFFCPDPDKIDALDELMRALKKEGDSIGAKVTVVASGVPAGLGEPVFDRLDADIAHALMSINAVKGVEIGDGFDVVALRGSQNRDEITKDGFQSNHAGGILGGISSGQQIIAHMALKPTSSITVPGRTINRFGEEVEMITKGRHDPCVGIRAVPIAEAMAAIVLMDHLLRQRAQNADVKTDIPRW
B2: lolC I59A (protein)
chain: MYQPVALFIGLRYMRGRAADRFGRFVSWLSTIGITLGVMALVTVLSVMNGFERELQNNALGLMPQAILSSEHGSLNPQQLPETAVKLDGVNRVAPITTGDVVLQSARSVAVGVMLGIDPAQKDPLTPYLVNVKQTDLEPGKYNVILGEQLASQLGVNRGDQIRVMVPSASQFTPMGRIPSQRLFNVIGTFAANSEVDGYEMLVNIEDASRLMRYPAGNITGWRLWLDEPLKVDSLSQQKLPEGSKWQDWRDRKGELFQAVRMEKNMMGLLLSLIVAVAAFNIITSLGLMVMEKQGEVAILQTQGLTPRQIMMVFMVQGASAGIIGAILGAALGALLASQLNNLMPIIGVLLDGAALPVAIEPLQVIVIALVAMAIALLSTLYPSWRAAATQPAEALRYE
B3: lolC I59W (protein)
chain: MYQPVALFIGLRYMRGRAADRFGRFVSWLSTIGITLGVMALVTVLSVMNGFERELQNNWLGLMPQAILSSEHGSLNPQQLPETAVKLDGVNRVAPITTGDVVLQSARSVAVGVMLGIDPAQKDPLTPYLVNVKQTDLEPGKYNVILGEQLASQLGVNRGDQIRVMVPSASQFTPMGRIPSQRLFNVIGTFAANSEVDGYEMLVNIEDASRLMRYPAGNITGWRLWLDEPLKVDSLSQQKLPEGSKWQDWRDRKGELFQAVRMEKNMMGLLLSLIVAVAAFNIITSLGLMVMEKQGEVAILQTQGLTPRQIMMVFMVQGASAGIIGAILGAALGALLASQLNNLMPIIGVLLDGAALPVAIEPLQVIVIALVAMAIALLSTLYPSWRAAATQPAEALRYE
B4: lolC I59Q (protein)
chain: MYQPVALFIGLRYMRGRAADRFGRFVSWLSTIGITLGVMALVTVLSVMNGFERELQNNQLGLMPQAILSSEHGSLNPQQLPETAVKLDGVNRVAPITTGDVVLQSARSVAVGVMLGIDPAQKDPLTPYLVNVKQTDLEPGKYNVILGEQLASQLGVNRGDQIRVMVPSASQFTPMGRIPSQRLFNVIGTFAANSEVDGYEMLVNIEDASRLMRYPAGNITGWRLWLDEPLKVDSLSQQKLPEGSKWQDWRDRKGELFQAVRMEKNMMGLLLSLIVAVAAFNIITSLGLMVMEKQGEVAILQTQGLTPRQIMMVFMVQGASAGIIGAILGAALGALLASQLNNLMPIIGVLLDGAALPVAIEPLQVIVIALVAMAIALLSTLYPSWRAAATQPAEALRYE
B5: lolC I59D (protein)
chain: MYQPVALFIGLRYMRGRAADRFGRFVSWLSTIGITLGVMALVTVLSVMNGFERELQNNDLGLMPQAILSSEHGSLNPQQLPETAVKLDGVNRVAPITTGDVVLQSARSVAVGVMLGIDPAQKDPLTPYLVNVKQTDLEPGKYNVILGEQLASQLGVNRGDQIRVMVPSASQFTPMGRIPSQRLFNVIGTFAANSEVDGYEMLVNIEDASRLMRYPAGNITGWRLWLDEPLKVDSLSQQKLPEGSKWQDWRDRKGELFQAVRMEKNMMGLLLSLIVAVAAFNIITSLGLMVMEKQGEVAILQTQGLTPRQIMMVFMVQGASAGIIGAILGAALGALLASQLNNLMPIIGVLLDGAALPVAIEPLQVIVIALVAMAIALLSTLYPSWRAAATQPAEALRYE
B6: lolD L25A (protein)
chain: MNKILLQCDNLCKRYQEGSVQTDVAHNVSFSVGEGEMMAIVGSSGSGKSTLLHLLGGLDTPTSGDVIFNGQPMSKLSSAAKAELRNQKLGFIYQFHHLLPDFTALENVAMPLLIGKKKPAEINSRALEMLKAVGLDHRANHRPSELSGGERQRVAIARALVNNPRLVLADEPTGNLDARNADSIFQLLGELNRLQGTAFLVVTHDLQLAKRMSRQLEMRDGRLTAELSLMGAE
B7: lolD L25W (protein)
chain: MNKILLQCDNLCKRYQEGSVQTDVWHNVSFSVGEGEMMAIVGSSGSGKSTLLHLLGGLDTPTSGDVIFNGQPMSKLSSAAKAELRNQKLGFIYQFHHLLPDFTALENVAMPLLIGKKKPAEINSRALEMLKAVGLDHRANHRPSELSGGERQRVAIARALVNNPRLVLADEPTGNLDARNADSIFQLLGELNRLQGTAFLVVTHDLQLAKRMSRQLEMRDGRLTAELSLMGAE
B8: lolD L52Q (protein)
chain: MNKILLQCDNLCKRYQEGSVQTDVLHNVSFSVGEGEMMAIVGSSGSGKSTLQHLLGGLDTPTSGDVIFNGQPMSKLSSAAKAELRNQKLGFIYQFHHLLPDFTALENVAMPLLIGKKKPAEINSRALEMLKAVGLDHRANHRPSELSGGERQRVAIARALVNNPRLVLADEPTGNLDARNADSIFQLLGELNRLQGTAFLVVTHDLQLAKRMSRQLEMRDGRLTAELSLMGAE
B9: lolD L52P (protein)
chain: MNKILLQCDNLCKRYQEGSVQTDVLHNVSFSVGEGEMMAIVGSSGSGKSTLPHLLGGLDTPTSGDVIFNGQPMSKLSSAAKAELRNQKLGFIYQFHHLLPDFTALENVAMPLLIGKKKPAEINSRALEMLKAVGLDHRANHRPSELSGGERQRVAIARALVNNPRLVLADEPTGNLDARNADSIFQLLGELNRLQGTAFLVVTHDLQLAKRMSRQLEMRDGRLTAELSLMGAE
B10: lolD L54A (protein)
chain: MNKILLQCDNLCKRYQEGSVQTDVLHNVSFSVGEGEMMAIVGSSGSGKSTLLHALGGLDTPTSGDVIFNGQPMSKLSSAAKAELRNQKLGFIYQFHHLLPDFTALENVAMPLLIGKKKPAEINSRALEMLKAVGLDHRANHRPSELSGGERQRVAIARALVNNPRLVLADEPTGNLDARNADSIFQLLGELNRLQGTAFLVVTHDLQLAKRMSRQLEMRDGRLTAELSLMGAE
B11: lolD L54Q (protein)
chain: MNKILLQCDNLCKRYQEGSVQTDVLHNVSFSVGEGEMMAIVGSSGSGKSTLLHQLGGLDTPTSGDVIFNGQPMSKLSSAAKAELRNQKLGFIYQFHHLLPDFTALENVAMPLLIGKKKPAEINSRALEMLKAVGLDHRANHRPSELSGGERQRVAIARALVNNPRLVLADEPTGNLDARNADSIFQLLGELNRLQGTAFLVVTHDLQLAKRMSRQLEMRDGRLTAELSLMGAE
B12: lolD L54P (protein)
chain: MNKILLQCDNLCKRYQEGSVQTDVLHNVSFSVGEGEMMAIVGSSGSGKSTLLHPLGGLDTPTSGDVIFNGQPMSKLSSAAKAELRNQKLGFIYQFHHLLPDFTALENVAMPLLIGKKKPAEINSRALEMLKAVGLDHRANHRPSELSGGERQRVAIARALVNNPRLVLADEPTGNLDARNADSIFQLLGELNRLQGTAFLVVTHDLQLAKRMSRQLEMRDGRLTAELSLMGAE
B13: lolE V40Q (protein)
chain: MAMPLSLLIGLRFSRGRRRGGMVSLISVISTIGIALGVAQLIVGLSAMNGFERELNNRILAVVPHGEIEAVDQPWTNWQEALDHVQKVPGIAAAAPYINFTGLVESGANLRAIQVKGVNPQQEQRLSALPSFVQGDAWRNFKAGEQQIIIGKGVADALKVKQGDWVSIMIPNSNPEHKLMQPKRVRLHVAGILQLSGQLDHSFAMIPLADAQQYLDMGSSVSGIALKMTDVFNANKLVRDAGEVTNSYVYIKSWIGTYGYMYRDIQMIRAIMYLAMVLVIGVACFNIVSTLVMAVKDKSGDIAVLRTLGAKDGLIRAIFVWYGLLAGLFGSLCGVIIGVVVSLQLTPIIEWIEKLIGHQFLSSDIYFIDFLPSELHWLDVFYVLVTALLLSLLASWYPARRASNIDPARVLSGQ
B14: lolE L193A (protein)
chain: MAMPLSLLIGLRFSRGRRRGGMVSLISVISTIGIALGVAVLIVGLSAMNGFERELNNRILAVVPHGEIEAVDQPWTNWQEALDHVQKVPGIAAAAPYINFTGLVESGANLRAIQVKGVNPQQEQRLSALPSFVQGDAWRNFKAGEQQIIIGKGVADALKVKQGDWVSIMIPNSNPEHKLMQPKRVRLHVAGIAQLSGQLDHSFAMIPLADAQQYLDMGSSVSGIALKMTDVFNANKLVRDAGEVTNSYVYIKSWIGTYGYMYRDIQMIRAIMYLAMVLVIGVACFNIVSTLVMAVKDKSGDIAVLRTLGAKDGLIRAIFVWYGLLAGLFGSLCGVIIGVVVSLQLTPIIEWIEKLIGHQFLSSDIYFIDFLPSELHWLDVFYVLVTALLLSLLASWYPARRASNIDPARVLSGQ

What follows are proteins tested against Escherichia coli (laboratory strain) (assay: barcode share on antibiotic plates over drug-free plates; higher = less susceptible). Settings: antibiotic: carbenicillin; 2× MIC (3.1 µg/mL).
Experimental: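 A pool of E. coli strains, each edited to carry one amino-acid change in an essential protein, was grown for 48 h on minimal glucose agar with or without antibiotic; strain barcodes were sequenced; mean of two replicates.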

Protein	fold change of barcode share
B1	0.564 ± 0.018
B2	0.321 ± 0.21
B3	0.33 ± 0.27
B4	0.323 ± 0.23
B5	0.268 ± 0.049
B6	1.14 ± 1.4
B7	0.487 ± 0.21
B8	0.154 ± 0.0074
B9	0.305 ± 0.021
B10	0.519 ± 0.0078
B11	0.159 ± 0.048
B12	0.204 ± 0.25
B13	0.258 ± 0.16
B14	0.233 ± 0.15

Same assay, conditions: antibiotic: gentamicin; 2× MIC (MIC 0.45 µg/mL)

Protein	fold change of barcode share
B1	0.458 ± 0.64
B2	< 0.0108
B4	0.0232 ± 0.017
B5	0.0291 ± 0.014
B6	0.0115 ± 0.013
B7	< 0.00641
B8	0.0231 ± 0.023
B9	< 0.00569
B10	< 0.0132
B11	< 0.00764
B12	< 0.0149
B13	< 0.013
B14	0.0172 ± 0.0015
